Whole data set: some 110,000 compounds, median “z-score” near -0.1, cut for the highest 2% near 2. The list shows a part of the results.
These compounds were tested against Metabotropic glutamate receptor 8 (Rattus norvegicus) (UniProt P70579) (assay: rat mGluR8 modulators via GIRK flux, primary screen, cell-based, thallium flux, HTS (AID 488969)). Settings: HEK293 rat mGluR8, GIRK (G protein-gated inwardly rectifying potassium channel) thallium flux, FluoZin2; at 10 µM; stronger effect = higher value; submaximal glutamate (EC20) added with thallium.
Chain of UniProt P70579 (P70579 whole entry, looked up): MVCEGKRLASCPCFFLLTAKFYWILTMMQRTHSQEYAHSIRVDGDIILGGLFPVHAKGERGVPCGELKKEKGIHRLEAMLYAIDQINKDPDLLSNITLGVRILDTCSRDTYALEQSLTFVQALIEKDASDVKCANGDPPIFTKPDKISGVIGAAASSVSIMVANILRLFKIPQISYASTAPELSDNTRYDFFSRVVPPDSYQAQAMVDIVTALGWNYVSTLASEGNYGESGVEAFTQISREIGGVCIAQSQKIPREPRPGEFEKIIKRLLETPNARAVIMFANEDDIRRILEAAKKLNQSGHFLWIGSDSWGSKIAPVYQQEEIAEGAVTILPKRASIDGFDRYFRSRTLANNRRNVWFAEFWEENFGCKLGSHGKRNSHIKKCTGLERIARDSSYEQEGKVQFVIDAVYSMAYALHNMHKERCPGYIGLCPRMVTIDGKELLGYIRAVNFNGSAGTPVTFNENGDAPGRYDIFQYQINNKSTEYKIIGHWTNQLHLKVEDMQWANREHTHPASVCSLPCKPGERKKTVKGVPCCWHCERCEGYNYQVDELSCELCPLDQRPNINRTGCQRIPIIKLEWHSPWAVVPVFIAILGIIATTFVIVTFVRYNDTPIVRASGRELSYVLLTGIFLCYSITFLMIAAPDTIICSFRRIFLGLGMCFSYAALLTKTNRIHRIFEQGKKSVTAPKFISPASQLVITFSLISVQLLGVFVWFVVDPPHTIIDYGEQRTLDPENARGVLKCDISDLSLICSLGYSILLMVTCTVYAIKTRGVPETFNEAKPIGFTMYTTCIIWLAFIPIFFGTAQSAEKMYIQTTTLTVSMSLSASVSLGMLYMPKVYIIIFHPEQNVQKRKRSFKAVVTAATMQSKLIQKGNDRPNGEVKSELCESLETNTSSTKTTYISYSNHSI
Work on `Cc1cc(-c2c(C)[nH]n(-c3ccc(Cl)cc3)c2=O)n[nH]1` yielded a z-score of -0.115.
`Cc1nc2c(Cl)cccc2[nH]1` gave a z-score of 0.0958.
With `COc1cccc(/C=N/NC(=O)c2nc(-c3ccccc3)cc(-c3ccccc3)n2)c1O` the z-score was -0.12.
In the case of `CCCc1cc(=O)[nH]c(SCc2ccccc2)n1`, the z-score is reported as -0.501.
Compound `Cc1ccc(Cn2c(SCC(=O)NCC3CCCO3)nc3c(sc4ccccc43)c2=O)cc1` (stereo not given) has a z-score of 2.06.
With `COCCNC(=O)/C(C#N)=C/c1ccc(-c2ccc(OC)cc2[N+](=O)[O-])o1` the z-score was -0.564.
With `O=C(COc1cc(Cl)c(Cl)cc1Cl)Nc1ccncc1` the z-score was 1.2.
`S=c1nc[nH]c2c1[nH]c1ccccc12` gave a z-score of 0.0879.
In the case of `COc1ccccc1NC(=S)NC1CCCCC1`, the z-score is reported as -0.189.
In the case of `CCOC(=O)c1c(-c2ccccc2Cl)csc1NC(=O)CSc1nc(C)cc(=O)[nH]1`, the z-score is reported as -1.63.
`CCCOc1ccccc1N/C(=N/c1nc(C)cc(C)n1)NC(=O)COc1ccc(OC)cc1` gave a z-score of 0.266.
`CC1(C)C=C(c2ccc(C=O)s2)CC(C)(C)N1` showed a z-score of -0.126.
Compound `COc1cccc(/C=N\n2c(C)nnc2C)c1OC` has a z-score of -0.307.
Work on `COc1ccc(Cl)cc1-n1c(N)c(C(N)=O)sc1=S` yielded a z-score of -0.176.
`COc1ccc(-c2cc(-c3cccs3)c(C#N)c(SCC(=O)NCc3ccccc3OC)n2)cc1` was tested, and the z-score was 0.373.
In the case of `CCOC(=O)c1cnc(SCC(=O)Nc2cc(C(F)(F)F)ccc2N2CCOCC2)nc1N`, the z-score is reported as 0.251.
In the case of `CCOc1cc(/C=N/NC(=O)c2ccc(CN3CCOCC3)cc2)ccc1OCc1ccccc1`, the z-score is reported as -0.182.
For `Nc1nonc1C(=O)NCCNCc1ccccc1OCc1ccc(F)cc1`, the z-score was 0.932.
`COc1ccc(-c2nc(CSCC(=O)N3CCN(C)CC3)c(C)o2)cc1OC` showed a z-score of -0.0626.
Work on `CC(=O)Nc1ccc(NC(=O)CSc2ccc(-c3ccc4c(c3)OCO4)nn2)cc1` yielded a z-score of 0.189.
`C=C(C)CNC(=S)/N=c1\scc(C)n1CC` gave a z-score of 0.0475.
For `Cc1cc(OC(C)C)c2c(-c3ccccc3)cc(=O)oc2c1`, the z-score was -0.594.
In the case of `CCOC(=O)C1CCC(CNCc2ccc(Cl)cc2)CC1` (stereo not given), the z-score is reported as -1.85.
`COC(=O)c1sccc1NC(=O)CCC1CCCC1` was tested, and the z-score was -0.354.
`O=C1NC(c2ccccc2)(C(F)(F)F)SC2=NCCCN12` (stereo not given) was tested, and the z-score was 0.684.
`O=c1cc(CN2CCN(c3cccc(Cl)c3)CC2)c2cc(O)c(-c3ccccc3)cc2o1` gave a z-score of -0.175.
`Cc1ccc2c(c1C)NC(=O)C2(O)CC(=O)c1ccc2c(c1)OCO2` (stereo not given) gave a z-score of 0.111.
With `COc1ccc(NC(=O)CCN2C(=O)C3C4CCC(C4)C3C2=O)cc1` (stereo not given) the z-score was 1.07.
In the case of `Cc1cc(C)cc(CC2CC(=O)N(c3cc(C)on3)C2=O)c1` (stereo not given), the z-score is reported as -0.0765.
With `CSc1nc2ccccc2n1Cc1cccc(F)c1` the z-score was -0.682.
Work on `Cc1cc(=O)oc2cc(OCC3CC(c4ccccc4)=NO3)ccc12` (stereo not given) yielded a z-score of -0.445.
With `Cc1ccc(Cn2c(=N)n(CC(O)COc3ccccc3)c3ccccc32)cc1` (stereo not given) the z-score was 2.98.
`COc1ccc(C2/C(=C(\O)c3cc(C)ccc3C)C(=O)C(=O)N2CCN(C)C)cc1OC` (stereo not given) showed a z-score of 0.36.
`CCCOc1ccc(C(=O)N2CCN(c3ccc(NC(=O)CC)cc3Cl)CC2)cc1` was tested, and the z-score was -0.254.
For `N#Cc1c(NC(=O)CSc2nnc(-c3ccccc3)o2)sc2c1CCCC2`, the z-score was -0.225.
`COc1cccc(-c2nc(CS(=O)(=O)CC(=O)Nc3cc(C)ccc3C)c(C)o2)c1` gave a z-score of -1.75.
`O=C(Nc1cc(Cl)ccc1N1CCOCC1)c1cnccn1` showed a z-score of 0.036.
For `COc1ccc(CCNC(=O)COc2ccc(S(=O)(=O)NC3CCCCC3)cc2Cl)cc1OC`, the z-score was -0.141.
In the case of `COC(=O)c1cc(OC)c(OC)cc1NC(=O)CCc1ccc(C)o1`, the z-score is reported as -0.276.
Work on `Cc1cc2c(c(=O)n1Cc1ccccn1)C(C(C)C)C(C#N)=C(N)O2` (stereo not given) yielded a z-score of 0.416.
Compound `CCOc1ncccc1C(=O)OCc1ccc(Cl)cc1` has a z-score of -0.138.
`CSc1nnc(-c2sc3cc(C(F)(F)F)cnc3c2-c2cccnc2)n1C` was tested, and the z-score was 0.0193.
`COc1cc(CNCCSc2nnnn2C)cc(OC)c1OC` was tested, and the z-score was -0.0463.
In the case of `CC1CCCC(NC(=S)NC(=O)c2ccccc2Br)C1C` (stereo not given), the z-score is reported as 2.91.
Work on `CCSc1ncc(Cl)c(C(=O)N(Cc2ccc(N(C)C)cc2)C2CCS(=O)(=O)C2)n1` (stereo not given) yielded a z-score of 0.00675.
Compound `Cc1ccc2c(C(=O)CN3CCSCC3)c(C)[nH]c2c1` has a z-score of -0.211.
`CCOC(=O)c1c(-c2ccc(C)cc2)cn2ccccc12` gave a z-score of -0.192.
Work on `CC(C)(C)c1ccc(/C=N/NC(=O)C(=O)NCCCN2CCOCC2)cc1` yielded a z-score of 0.0375.
In the case of `O=C(Nc1ccc2nsnc2c1)c1cccs1`, the z-score is reported as 0.717.
For `CCOn1c(=O)c(-c2ccc(OC)c(OC)c2)[n+]([O-])c2ccccc21`, the z-score was -0.237.
For `Cc1c(NC(=O)c2ccc(C(C)(C)C)cc2)cccc1[N+](=O)[O-]`, the z-score was -0.278.
`O=C(CC1S/C(=N/N=C/c2c[nH]c3ccccc23)NC1=O)Nc1ccccc1` (stereo not given) was tested, and the z-score was -0.0073.
With `O=c1c(C(c2ccc(O)cc2)c2c(O)nc3n(c2=O)CCS3)c(O)nc2n1CCS2` the z-score was -0.51.
In the case of `c1ccc(-c2cnn3c(-c4ccccc4)c(-c4ccccc4)nc3n2)cc1`, the z-score is reported as -0.202.
Compound `Cc1nc2oc3c(NCc4ccccc4)ncnc3c2c2c1COC(C)(C)C2` has a z-score of -0.383.
For `CCc1ccc2nc(SCC(=O)N(CC)CC)c(C#N)cc2c1`, the z-score was -0.271.
With `O=C(Nc1ccccc1)N1C(=O)C2(OCCO2)c2ccccc21` the z-score was 0.828.
`CCOc1ccc(S(=O)(=O)Nc2cc(Sc3ncn[nH]3)c3oc(=O)sc3c2)cc1` was tested, and the z-score was -1.07.
In the case of `CCCCC1(Cc2ccc(OC)c([N+](=O)[O-])c2)C(=O)N(c2ccccc2)N(c2ccccc2)C1=O`, the z-score is reported as -0.162.
For `COc1ccc(OCC(=O)Nc2ccc(C)cc2)cc1`, the z-score was -0.351.
Work on `Cc1nn(Cc2c(Cl)cccc2Cl)c(C)c1NC(=O)c1cc(C(C)C)on1` yielded a z-score of -0.283.
Compound `Nc1nc(SCC(=O)Nc2cccc(Oc3ccccc3)c2)n[nH]1` has a z-score of -0.397.
In the case of `O=C(Nc1ccccc1-c1nc2ccccc2[nH]1)c1sc2ccccc2c1Cl`, the z-score is reported as -0.246.
`COc1ccc(F)cc1S(=O)(=O)N1CC(C)CC(C)C1` (stereo not given) showed a z-score of 0.0802.
Compound `S=c1[nH]nc(-c2cc(-c3ccco3)[nH]n2)n1-c1cccc2ccccc12` has a z-score of -1.1.
In the case of `COc1ccc2cc(C#N)c(SCC(=O)NNC(=O)Cc3ccccc3)nc2c1`, the z-score is reported as 0.337.
In the case of `COc1cc(OC)nc(Oc2ccccc2C(=O)Oc2ccccc2Cl)n1`, the z-score is reported as -0.567.
For `Cc1nn(-c2ccccc2)c2sc(C(=O)NNC(=O)COc3ccccc3)cc12`, the z-score was 1.64.
For `Cc1ccc(C)c(CN2C(=O)C(C)Oc3ccc(C)cc32)c1` (stereo not given), the z-score was -0.123.
`O=C1NN(c2ccccc2)C(=O)/C1=C\c1cccc(OC(=O)c2cccs2)c1` showed a z-score of -0.349.

From PubChem BioAssay AID488969 (Vanderbilt High Throughput Screening Facility, 2010)
